This is an account of results in PMC5047623 (PLoS ONE, 2016).

The assay has as its target full-length flag-tagged integrin α5ß1 (human, UniProt P08648 42-1049; P05556). The assay is described as follows: cell-based or functional assay.
Chain of UniProt P08648 (P08648 42-1049, chain 1 of 2): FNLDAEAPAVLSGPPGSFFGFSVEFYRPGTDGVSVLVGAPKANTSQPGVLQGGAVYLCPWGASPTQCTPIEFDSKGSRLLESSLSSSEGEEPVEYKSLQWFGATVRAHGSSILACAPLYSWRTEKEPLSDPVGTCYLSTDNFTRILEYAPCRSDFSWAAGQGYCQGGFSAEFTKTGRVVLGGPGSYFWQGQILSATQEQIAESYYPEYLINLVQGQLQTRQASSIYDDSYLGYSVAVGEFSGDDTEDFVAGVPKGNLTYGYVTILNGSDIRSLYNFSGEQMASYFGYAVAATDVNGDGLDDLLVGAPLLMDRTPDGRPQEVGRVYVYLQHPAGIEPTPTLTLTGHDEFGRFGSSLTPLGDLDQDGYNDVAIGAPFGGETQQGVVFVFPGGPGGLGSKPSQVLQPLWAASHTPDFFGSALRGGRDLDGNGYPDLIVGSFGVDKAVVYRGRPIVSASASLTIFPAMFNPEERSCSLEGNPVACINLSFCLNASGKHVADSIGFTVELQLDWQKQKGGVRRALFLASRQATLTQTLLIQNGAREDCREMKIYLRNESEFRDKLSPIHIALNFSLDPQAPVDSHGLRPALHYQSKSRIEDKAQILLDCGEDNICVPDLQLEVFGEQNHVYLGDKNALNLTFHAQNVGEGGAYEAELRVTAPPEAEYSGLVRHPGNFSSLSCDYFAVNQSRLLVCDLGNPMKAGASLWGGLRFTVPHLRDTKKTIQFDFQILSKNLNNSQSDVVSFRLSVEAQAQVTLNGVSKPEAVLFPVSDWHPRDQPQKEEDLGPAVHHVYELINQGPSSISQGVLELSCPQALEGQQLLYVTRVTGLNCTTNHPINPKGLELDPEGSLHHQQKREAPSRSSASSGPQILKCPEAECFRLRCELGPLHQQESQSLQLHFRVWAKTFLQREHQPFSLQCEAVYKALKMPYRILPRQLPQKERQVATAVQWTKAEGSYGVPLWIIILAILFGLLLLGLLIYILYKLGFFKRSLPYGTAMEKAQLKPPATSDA
Chain of UniProt P08648 (P05556 21-798, chain 2 of 2, further chain): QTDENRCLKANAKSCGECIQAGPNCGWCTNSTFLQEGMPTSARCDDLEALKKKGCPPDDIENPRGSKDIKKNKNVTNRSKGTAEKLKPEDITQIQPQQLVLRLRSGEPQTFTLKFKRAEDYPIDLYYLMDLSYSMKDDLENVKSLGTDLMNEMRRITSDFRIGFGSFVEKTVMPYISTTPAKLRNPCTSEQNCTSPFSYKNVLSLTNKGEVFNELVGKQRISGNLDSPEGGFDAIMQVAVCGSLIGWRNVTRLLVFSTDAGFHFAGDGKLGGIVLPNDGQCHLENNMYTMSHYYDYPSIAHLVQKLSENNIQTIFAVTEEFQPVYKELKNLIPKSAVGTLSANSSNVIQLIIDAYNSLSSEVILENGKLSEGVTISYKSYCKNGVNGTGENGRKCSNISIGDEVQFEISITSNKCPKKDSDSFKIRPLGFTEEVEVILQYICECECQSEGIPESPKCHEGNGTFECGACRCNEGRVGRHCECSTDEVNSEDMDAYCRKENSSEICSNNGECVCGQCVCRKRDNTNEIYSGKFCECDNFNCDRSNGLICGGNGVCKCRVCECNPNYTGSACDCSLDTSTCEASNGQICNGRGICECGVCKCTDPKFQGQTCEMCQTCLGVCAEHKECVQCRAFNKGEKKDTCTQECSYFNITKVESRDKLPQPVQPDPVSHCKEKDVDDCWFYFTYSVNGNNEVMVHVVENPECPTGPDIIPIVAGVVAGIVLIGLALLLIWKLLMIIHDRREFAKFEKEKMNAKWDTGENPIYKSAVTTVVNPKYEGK

B1: full-length myc-tagged Tie2 receptor (receptor, UniProt Q02763 23-1124, looked up)
chain: AMDLILINSLPLVSDAETSLTCIASGWRPHEPITIGRDFEALMNQHQDPLEVTQDVTREWAKKVVWKREKASKINGAYFCEGRVRGEAIRIRTMKMRQQASFLPATLTMTVDKGDNVNISFKKVLIKEEDAVIYKNGSFIHSVPRHEVPDILEVHLPHAQPQDAGVYSARYIGGNLFTSAFTRLIVRRCEAQKWGPECNHLCTACMNNGVCHEDTGECICPPGFMGRTCEKACELHTFGRTCKERCSGQEGCKSYVFCLPDPYGCSCATGWKGLQCNEACHPGFYGPDCKLRCSCNNGEMCDRFQGCLCSPGWQGLQCEREGIQRMTPKIVDLPDHIEVNSGKFNPICKASGWPLPTNEEMTLVKPDGTVLHPKDFNHTDHFSVAIFTIHRILPPDSGVWVCSVNTVAGMVEKPFNISVKVLPKPLNAPNVIDTGHNFAVINISSEPYFGDGPIKSKKLLYKPVNHYEAWQHIQVTNEIVTLNYLEPRTEYELCVQLVRRGEGGEGHPGPVRRFTTASIGLPPPRGLNLLPKSQTTLNLTWQPIFPSSEDDFYVEVERRSVQKSDQQNIKVPGNLTSVLLNNLHPREQYVVRARVNTKAQGEWSEDLTAWTLSDILPPQPENIKISNITHSSAVISWTILDGYSISSITIRYKVQGKNEDQHVDVKIKNATITQYQLKGLEPETAYQVDIFAENNIGSSNPAFSHELVTLPESQAPADLGGGKMLLIAILGSAGMTCLTVLLAFLIILQLKRANVQRRMAQAFQNVREEPAVQFNSGTLALNRKVKNNPDPTIYPVLDWNDIKFQDVIGEGNFGQVLKARIKKDGLRMDAAIKRMKEYASKDDHRDFAGELEVLCKLGHHPNIINLLGACEHRGYLYLAIEYAPHGNLLDFLRKSRVLETDPAFAIANSTASTLSSQQLLHFAADVARGMDYLSQKQFIHRDLAARNILVGENYVAKIADFGLSRGQEVYVKKTMGRLPVRWMAIESLNYSVYTTNSDVWSYGVLLWEIVSLGGTPYCGMTCAELYEKLPQGYRLEKPLNCDDEVYDLMRQCWREKPYERPSFAQILVSLNRMLEERKTYVNTTLYEKFTYAGIDCSAEEAA
Turning to B1, the “MAPK (ERK1/2 T202/Y204) phosphorylation in TIME endothelial cells plated 15 minutes on fibronectin with 500 ng/mL Ang-1, against vehicle” value was approximately 1.6 fold.
